Laboratory results reported in PubChem BioAssay (EPA / NIEHS).
For some of these results: Shown are results outside the selection of hits, which stands elsewhere. Inconclusive results are not listed. The list shows a part of the results, in another mix than the full data. Activity calls are given as the source filed them. How the source made its calls, unless noted: active means hit-call score of the fitted dose curve at least 0.9, where 1 is the maximum; inconclusive means response in the unintended direction; inactive means score below 0.9.

Legend:
[1] = target: human Peroxisome Proliferator-activated Receptor alpha (PPARa), PPARA (gene 5465) (UniProt Q07869); assay: ATG_PPARa_TRANS: Attagene TRANS-FACTORIAL HepG2 Assay for human Peroxisome Proliferator-activated Receptor alpha (PPARa) (AID 2283001)
Summary of the method: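 Cells (HepG2) are transfected with multiple reporter transcription units, exposed to chemical for 24 h, then total RNA is reverse-transcribed and amplified. Labelled products are quantified by capillary electrophoresis; induction is referenced to DMSO.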

[2] = target: Peroxisome proliferator-activated receptor gamma (Homo sapiens) (UniProt P37231); assay: ATG_PPARg_TRANS: Attagene TRANS-FACTORIAL HepG2 Assay for human Peroxisome Proliferator-activated Receptor-gamma (PPARg) (AID 2283007)
Summary of the method: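 Twenty-four hours after chemical dosing of transiently transfected HepG2 cells, isolated RNA was converted to cDNA, reporter sequences amplified and 6-FAM-labelled, then HpaI-digested and analysed by capillary electrophoresis. Signal increase against DMSO was fitted.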

[3] = read-out: E-selectin (Homo sapiens) (UniProt P16581); assay: BSK_3C_Eselectin: BioMAP Diversity Plus: 3C Assay for Eselectin Biomarker Activity (AID 2283015; active means hit-call score of the fitted dose curve at least 0.9, where 1 is the maximum; inactive means score below 0.9;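 further: cell surface E-selectin protein quantified by ELISA 24 h after dosing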); details: actives raise or lower the signal; primary human endothelial cells (HUVEC)
Summary of the method: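 Human vascular endothelium from umbilical vein is exposed to test chemicals for 24 h. E-selectin levels are read by ELISA and compared with DMSO controls.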

CYP4A11 (gene 1579) = assay: LTEA_HepaRG_CYP4A11: Life Technologies and Expression Analysis (LTEA) Assay for CYP4A11 using HepaRG (AID 2283486; active means hit-call score of the fitted dose curve at least 0.9, where 1 is the maximum; inactive means score below 0.9); details: actives raise or lower the signal; mRNA level, 48 h
Summary of the method: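 Readout is CYP4A11 mRNA induction or suppression (qRT-PCR, ACTB/GAPDH/POLR2A normalization) in human HepaRG cells after 48 h chemical treatment, concentrations to 100 uM in 0.5% DMSO, fitted bidirectionally against vehicle.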

[4] = ACEA_AR_antagonist_AUC_viability: ACEA Biosciences xCELLigence Real-Time Cell Analysis on Androgen Receptor Antagonism for Viability (AID 2283776);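 further: 22Rv1 human prostate cancer cells growing on impedance electrode plates; area under impedance growth curve at 80 h after dosing as viability; hits lower the growth signal relative to DMSO meaning cytotoxicity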
Summary of the method: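 Viability endpoint from label-free cell-index monitoring: 22Rv1 cultures treated with an eight-point 1:4 dilution series starting at 100 uM final, AUC at 80 h fitted against DMSO.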

[5] = BSK_3C_Proliferation: Cell Proliferation Assessment in the BioMAP Diversity Plus: 3C Assay (AID 2283006; active means hit-call score of the fitted dose curve at least 0.9, where 1 is the maximum; inactive means score below 0.9;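 further: potency may reflect either rise or fall in cell number versus DMSO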); details: primary human endothelial cells (HUVEC)
Summary of the method: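 Cells (human umbilical vein endothelial, sub-confluent) receive test chemical; after 48 h they are fixed in 10% trichloroacetic acid, stained with 0.1% SRB and read at 560 nm. Activity is referenced to DMSO, fitting increases and decreases.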

[6] = target: human Vitamin D Receptor (VDR), VDR (gene 7421) (UniProt P11473); assay: ATG_VDR_TRANS: Attagene TRANS-FACTORIAL HepG2 Assay for human Vitamin D Receptor (VDR) (AID 2283022)
Summary of the method: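 Fluorescence of labelled reporter cDNA fragments, resolved by capillary electrophoresis, gives mRNA induction after 24 h treatment of HepG2 cells carrying transfected Gal4-fusion reporter units. Activity is fitted in the positive direction with DMSO as baseline.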

[7] = read-out: CFLAR gene, CFLAR (gene 8837); assay: LTEA_HepaRG_CFLAR: Life Technologies and Expression Analysis (LTEA) Assay for CFLAR gene using HepaRG (AID 2283455; active means hit-call score of the fitted dose curve at least 0.9, where 1 is the maximum; inactive means score below 0.9); details: actives raise or lower the signal; mRNA level, 48 h
Summary of the method: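 Gain- or loss-of-signal changes in CFLAR transcript were fitted bidirectionally relative to 0.5% DMSO. Cells (HepaRG, duplicate wells) were dosed for 48 h across eight half-log concentrations topping at 100 uM; quantitation by TaqMan qRT-PCR.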

In the case of `C=CCc1ccc(OC(=O)Cc2ccccc2)c(OC)c1`, the outcome [1] is reported as “inactive”.

For `CNC(=O)Oc1cc(C)c(SC)c(C)c1`, the AC50 [2] was active: 19.8 µM.

With `CC(C)NC(=O)N1CC(=O)N(c2cc(Cl)cc(Cl)c2)C1=O` the outcome [1] was “inactive”, the outcome [3] was “inactive” and the AC50 (CYP4A11 (gene 1579)) was active: 13.3 µM. For the same compound, the AC50 [4] was active: 9.92 µM.

For `CC(C)(c1ccccc1)c1ccc(O)cc1`, the AC50 [5] was active: 33.8 µM, the outcome [6] was “inactive” and the outcome [7] was “inactive”. For the same compound, the outcome (CYP4A11 (gene 1579)) was “inactive”.
